This is an account of results in article PMC12820563.

The list shows a part of the results. The list includes weakly bound sequences.

The assay addresses T1, MBP-FoxP3dN (UniProt Q99JB6).
T1 sequence: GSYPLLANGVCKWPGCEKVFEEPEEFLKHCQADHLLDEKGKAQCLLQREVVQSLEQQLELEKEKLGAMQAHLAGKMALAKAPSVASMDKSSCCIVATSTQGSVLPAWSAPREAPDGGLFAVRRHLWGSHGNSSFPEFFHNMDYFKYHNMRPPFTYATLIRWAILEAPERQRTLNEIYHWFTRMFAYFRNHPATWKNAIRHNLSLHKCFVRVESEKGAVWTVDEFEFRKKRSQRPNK
The experiment in a line: PD-seq (MBP pull-down with sequencing). The following applies: 20 mM Tris-HCl pH 7.5, 100 mM NaCl, 1.5 mM MgCl2, 0.4 uM protein, 0.1 uM dsDNA library, 30 min, room temperature, amylose pull-down; high values mean tight binding; double strand, one strand shown.
Regarding “GATGATTGTTCTCCCAGCTGATGAATTTACAGTATCGAGTAAACAAATTTTCCTAATCTTTCTGTTCAAGCGCCATCTAC”, the binding signal (RPM ratio (pull-down/input)) amounted to 0.933.
Regarding “GATGATTGTTCTCCCAGCTGATGAATTCTCTCTCTCGAGTAAACAAATTTTCCTAATCTTTCTGTTCAAGCGCCATCTAC”, the binding signal (RPM ratio (pull-down/input)) was 0.214.
To “GATGATTGTTCTCCCAGCTGATGAATTACGGACTTCGAGTAAACAAATTTTCCTAATCTTTCTGTTCAAGCGCCATCTAC” belongs 0.479; to “GATGATTGTTCTCCCAGCTGATGAATTTTGTCAGTCGAGTAAACAAATTTTCCTAATCTTTCTGTTCAAGCGCCATCTAC”, 1.24; to “GATGATTGTTCTCCCAGCTGATGAATTACCTGCCTCGAGTAAACAAATTTTCCTAATCTTTCTGTTCAAGCGCCATCTAC”, 0.476.
On to “GATGATTGTTCTCCCAGCTGATGAATTGACCCATTCGAGTAAACAAATTTTCCTAATCTTTCTGTTCAAGCGCCATCTAC”, for which the binding signal (RPM ratio (pull-down/input)) was determined as 0.395.
For “GATGATTGTTCTCCCAGCTGATGAATTGGAGACATCGAGTAAACAAATTTTCCTAATCTTTCTGTTCAAGCGCCATCTAC”, the binding signal (RPM ratio (pull-down/input)) came to 0.404.
To “GATGATTGTTCTCCCAGCTGATGAATTAACTAATTCGAGTAAACAAATTTTCCTAATCTTTCTGTTCAAGCGCCATCTAC” belongs 0.313; to “GATGATTGTTCTCCCAGCTGATGAATTCTGGCTCTCGAGTAAACAAATTTTCCTAATCTTTCTGTTCAAGCGCCATCTAC”, 0.376; to “GATGATTGTTCTCCCAGCTGATGAATTTATTAGGTCGAGTAAACAAATTTTCCTAATCTTTCTGTTCAAGCGCCATCTAC”, 3.09.
To “GATGATTGTTCTCCCAGCTGATGAATTTGTCCAGTCGAGTAAACAAATTTTCCTAATCTTTCTGTTCAAGCGCCATCTAC” belongs 1.11; to “GATGATTGTTCTCCCAGCTGATGAATTGAGGCGCTCGAGTAAACAAATTTTCCTAATCTTTCTGTTCAAGCGCCATCTAC”, 1.4.
Turning to “GATGATTGTTCTCCCAGCTGATGAATTCATTTCGTCGAGTAAACAAATTTTCCTAATCTTTCTGTTCAAGCGCCATCTAC”, the binding signal (RPM ratio (pull-down/input)) came to 0.76.
With “GATGATTGTTCTCCCAGCTGATGAATTCGGGGGTTCGAGTAAACAAATTTTCCTAATCTTTCTGTTCAAGCGCCATCTAC”, the binding signal (RPM ratio (pull-down/input)) stood at 0.512.
The result for “GATGATTGTTCTCCCAGCTGATGAATTCTGCTAGTCGAGTAAACAAATTTTCCTAATCTTTCTGTTCAAGCGCCATCTAC” reads 1.96.
As for “GATGATTGTTCTCCCAGCTGATGAATTATGTGTGTCGAGTAAACAAATTTTCCTAATCTTTCTGTTCAAGCGCCATCTAC”, the binding signal (RPM ratio (pull-down/input)) is 4.56.
The result for “GATGATTGTTCTCCCAGCTGATGAATTTTACCTCTCGAGTAAACAAATTTTCCTAATCTTTCTGTTCAAGCGCCATCTAC” reads 0.398; that for “GATGATTGTTCTCCCAGCTGATGAATTGCGTGGGTCGAGTAAACAAATTTTCCTAATCTTTCTGTTCAAGCGCCATCTAC”, 1.6.
Consider “GATGATTGTTCTCCCAGCTGATGAATTGGATGACTCGAGTAAACAAATTTTCCTAATCTTTCTGTTCAAGCGCCATCTAC”, for which the binding signal (RPM ratio (pull-down/input)) stood at 0.768.
In the case of “GATGATTGTTCTCCCAGCTGATGAATTCGGGCTTTCGAGTAAACAAATTTTCCTAATCTTTCTGTTCAAGCGCCATCTAC”, the binding signal (RPM ratio (pull-down/input)) worked out at 0.755.
To “GATGATTGTTCTCCCAGCTGATGAATTTATCCTGTCGAGTAAACAAATTTTCCTAATCTTTCTGTTCAAGCGCCATCTAC” belongs 0.868.
To “GATGATTGTTCTCCCAGCTGATGAATTAAAGATTTCGAGTAAACAAATTTTCCTAATCTTTCTGTTCAAGCGCCATCTAC” belongs 0.287.
On to “GATGATTGTTCTCCCAGCTGATGAATTTGCATACTCGAGTAAACAAATTTTCCTAATCTTTCTGTTCAAGCGCCATCTAC”, for which the binding signal (RPM ratio (pull-down/input)) was 3.73.
For “GATGATTGTTCTCCCAGCTGATGAATTAGGCGGGTCGAGTAAACAAATTTTCCTAATCTTTCTGTTCAAGCGCCATCTAC”, the binding signal (RPM ratio (pull-down/input)) was 0.629.
The result for “GATGATTGTTCTCCCAGCTGATGAATTTTATGTATCGAGTAAACAAATTTTCCTAATCTTTCTGTTCAAGCGCCATCTAC” reads 3.53; that for “GATGATTGTTCTCCCAGCTGATGAATTGTTCCTGTCGAGTAAACAAATTTTCCTAATCTTTCTGTTCAAGCGCCATCTAC”, 0.351.
The result for “GATGATTGTTCTCCCAGCTGATGAATTGAAAGCTTCGAGTAAACAAATTTTCCTAATCTTTCTGTTCAAGCGCCATCTAC” reads 0.298; that for “GATGATTGTTCTCCCAGCTGATGAATTCGAGAGATCGAGTAAACAAATTTTCCTAATCTTTCTGTTCAAGCGCCATCTAC”, 0.216.
The result for “GATGATTGTTCTCCCAGCTGATGAATTTCGACTTTCGAGTAAACAAATTTTCCTAATCTTTCTGTTCAAGCGCCATCTAC” reads 1.42; that for “GATGATTGTTCTCCCAGCTGATGAATTCTGATCATCGAGTAAACAAATTTTCCTAATCTTTCTGTTCAAGCGCCATCTAC”, 0.437.
Turning to “GATGATTGTTCTCCCAGCTGATGAATTTCAATTGTCGAGTAAACAAATTTTCCTAATCTTTCTGTTCAAGCGCCATCTAC”, the binding signal (RPM ratio (pull-down/input)) is 1.36.
Take “GATGATTGTTCTCCCAGCTGATGAATTATAGCCTTCGAGTAAACAAATTTTCCTAATCTTTCTGTTCAAGCGCCATCTAC”: the binding signal (RPM ratio (pull-down/input)) was 2.08.
